Laboratory results reported in patent US20020102658A1.

Molecular target: human AILIM (activation inducible lymphocyte immunomodulatory molecule) (human) (UniProt Q9Y6W8)
Assay: cell ELISA on recombinant CHO cells overexpressing human AILIM; given as ED50

Chain of UniProt Q9Y6W8 (Q9Y6W8 21-199): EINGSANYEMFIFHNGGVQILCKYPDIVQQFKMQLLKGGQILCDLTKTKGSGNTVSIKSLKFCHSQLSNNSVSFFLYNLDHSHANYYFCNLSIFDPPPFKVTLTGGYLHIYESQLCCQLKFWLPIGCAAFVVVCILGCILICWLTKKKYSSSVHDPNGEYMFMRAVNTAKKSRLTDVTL

B1: human anti-human AILIM monoclonal antibody JMab-136 (clone AIH5D3) (antibody, from another filing, human IgG2, V domains shown)
VH: [in this place about 100 residues]TYYYDSSGYYHDAFDIWGQGTMVTVSS
VL: DIQMTQSPSSVSASVGDRVTITCRASQGISRLLAWYQQKPGKAPKLLIYVASSLQSGVPSRFSGSGSGTDFTLTISSLQPEDFATYYCQQANSFPWTFGQGTKVEIKR
- EC50: 7.5 ng/mL
